Test results taken from publication PMC5836133.
The list shows a part of the results. At the low end of the ranking, values are background and their order means little.

tested on: T1, GST-NbGlk1(82-244); experiment: protein-binding microarray; conditions: NbGlk1 is a Golden2-like transcription factor of Nicotiana benthamiana; high values mean tight binding; most listed sequences are background and not binding sites; double strand, one strand shown;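 note: rank-based score ranging −0.5 to +0.5 with E above 0.45 taken as significant binding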
T1 sequence: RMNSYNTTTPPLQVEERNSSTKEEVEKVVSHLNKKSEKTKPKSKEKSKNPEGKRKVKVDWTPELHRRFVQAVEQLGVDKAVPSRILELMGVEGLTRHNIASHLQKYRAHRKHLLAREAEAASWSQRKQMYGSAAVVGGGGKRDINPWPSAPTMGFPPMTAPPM

| Sequence | binding signal |
| --- | --- |
| AACGTAAG | -0.0364 E-score |
| AGCCCCTC | -0.262 E-score |
| AGCTCAAT | -0.212 E-score |
| AATCCGGG | 0.368 E-score |
| AATCACTG | 0.269 E-score |
| AACTCACG | -0.14 E-score |
| ATAGGACG | -0.133 E-score |
| ATAACCGA | 0.0344 E-score |
| ATCCATTA | 0.321 E-score |
| AGCGGATG | -0.084 E-score |
| AAAAGTTG | -0.0551 E-score |
| AGTCTCAT | -0.127 E-score |
| AGTTACCC | -0.113 E-score |
| ATTGAACG | 0.0185 E-score |
| AGGGATTG | 0.248 E-score |
| AGTGTCGG | -0.181 E-score |
| ATAATATC | 0.347 E-score |
| ATTGAACC | 0.0413 E-score |
| AGCTGATG | -0.194 E-score |
| AGACTCCA | -0.175 E-score |
| ACAGCCCC | -0.256 E-score |
| ACAATACC | 0.048 E-score |
| ACTCGTGA | -0.0369 E-score |
| CAATCTGC | 0.305 E-score |
| AGTCTAAA | -0.0385 E-score |

| Sequence | binding signal |
| --- | --- |
| AGGGTAAC | -0.0404 E-score |
| ATTTCCGA | 0.341 E-score |
| CAGATAAA | -0.0463 E-score |
| AGAGACAA | -0.0416 E-score |
| ATGCTCAA | -0.0881 E-score |
| AATCCCTA | 0.281 E-score |
| ACAGGCCT | -0.128 E-score |
| AACAGCCA | -0.223 E-score |
| CAACCGAC | -0.0321 E-score |
| AAGGATGT | -0.011 E-score |
| AAAGGGTC | -0.234 E-score |
| CAATGGCG | -0.197 E-score |
| AAGAAACT | -0.113 E-score |
| AGACAGCT | -0.16 E-score |
| CAGAAAAC | 0.0719 E-score |
| AGACGGTC | -0.327 E-score |
| ACGCTTGG | -0.226 E-score |
| CAAATACA | 0.143 E-score |
| ATCTTTTA | 0.259 E-score |
| ATGACCTA | -0.204 E-score |
| ACCATGTA | 0.0459 E-score |
| AGCACAGC | -0.175 E-score |
| AATATTGT | 0.125 E-score |
| AAGACATT | 0.0301 E-score |
| AAGGTCAT | -0.239 E-score |

| Sequence | binding signal |
| --- | --- |
| ATGCGCAC | -0.0166 E-score |
| CAGCCCTA | -0.139 E-score |
| ATGTGAAT | 0.126 E-score |
| ACAGCGTG | -0.218 E-score |
| ACCACCAT | -0.0906 E-score |
| ATTGATAC | 0.131 E-score |
| AGGAAGAC | -0.209 E-score |
| ATTAAGTC | 0.117 E-score |
| AATATCCA | 0.396 E-score |
| ATAAACAA | 0.0486 E-score |
| ACAGAGGT | -0.198 E-score |
| ATTCACTC | -0.0173 E-score |
| AGTCTTGG | -0.149 E-score |
| AGGGGGTG | -0.17 E-score |
| AGTCATGC | -0.219 E-score |
| AGAATCAT | 0.359 E-score |
| ATTCGCGC | 0.2 E-score |
| ATGCTAGC | -0.0697 E-score |
| ACGCAGTC | -0.146 E-score |
| AACCAACA | 0.0383 E-score |
| AAACAGTC | -0.136 E-score |
| ACCACGCG | 0.016 E-score |
| ATCAACAA | 0.119 E-score |
| ATCCCAGC | 0.111 E-score |
| AAGCCTAA | -0.217 E-score |

| Sequence | binding signal |
| --- | --- |
| ACTTGCCG | -0.149 E-score |
| ATAGGCCC | -0.255 E-score |
| ATGTGAAC | 0.084 E-score |
| ATACGAAC | 0.16 E-score |
| ACTCGGTA | -0.00811 E-score |
| AAGAAGCA | -0.13 E-score |
| CACGCTAG | -0.0942 E-score |
| AGGCTTTC | -0.0922 E-score |
| ATAACTAC | -0.0567 E-score |
| ATGGATAA | 0.173 E-score |
| AGTTCAAA | 0.0405 E-score |
| CAAGTCGC | -0.206 E-score |
| ATTCCACA | 0.143 E-score |
| AAGCCCTT | -0.297 E-score |
| AACTTGGT | -0.123 E-score |
| ACCTTAAA | -0.0171 E-score |
| ATTCTCAG | 0.32 E-score |
| ACGTTTGC | -0.0926 E-score |
| ACGTAACT | 0.00351 E-score |
| AGGTGTGG | -0.000122 E-score |
| ATCGATGA | 0.123 E-score |
| AGTGCGTG | -0.0453 E-score |
| ACGTGGGG | -0.119 E-score |
| CAAAGGCA | -0.245 E-score |
| ACCAGACT | -0.207 E-score |

| Sequence | binding signal |
| --- | --- |
| AATAGTAG | 0.065 E-score |
| ACCCATCA | -0.0452 E-score |
| CACGTCTG | -0.122 E-score |
| CACCATGG | -0.298 E-score |
| AAGCGGAC | -0.12 E-score |
| AGTCACGA | 0.0268 E-score |
| ACGGTATA | -0.00374 E-score |
| ATTCGCCG | 0.263 E-score |
| CAAGCGTC | -0.238 E-score |
| ATATAGAA | 0.254 E-score |
| AGTGGCCG | -0.154 E-score |
| AACTAAGA | 0.0111 E-score |
| AATAATCT | 0.276 E-score |
| AAAACGAA | 0.124 E-score |
| ATAAGTAG | 0.00496 E-score |
| ACGACAAA | -0.00994 E-score |
| ATCGATGC | 0.0291 E-score |
| CACGCCAC | -0.0983 E-score |
| ATTTTCAG | 0.282 E-score |
| ACAGTCGT | -0.227 E-score |
| ACAGGGTA | 0.00875 E-score |
| ATACGAAT | 0.352 E-score |
| AGCGCGTG | 0.011 E-score |
| ATAACTAG | 0.0239 E-score |
| ATACTCGA | 0.15 E-score |

| Sequence | binding signal |
| --- | --- |
| AGACAGCA | -0.13 E-score |
| ATATAAAC | 0.155 E-score |
| AGATCAGC | -0.0166 E-score |
| AATGCATG | -0.0947 E-score |
| ATCGAAGA | 0.181 E-score |
| AATCTGGG | 0.428 E-score |
| ATTCTTCG | 0.147 E-score |
| ACATGCAC | -0.0351 E-score |
| ATCAAATA | 0.183 E-score |
| ATTGATTC | 0.289 E-score |
| AACACTGG | -0.133 E-score |
| AGATATAC | 0.241 E-score |
| AGATTATG | 0.35 E-score |
| ACTAAGCG | -0.155 E-score |
| ATAAAACG | 0.0917 E-score |
| AAGCTCGT | -0.109 E-score |
| ATATATCG | 0.276 E-score |
| CAACTTGA | -0.0684 E-score |
| AAATAAAG | 0.202 E-score |
| CACATACC | -0.105 E-score |
| ATAGCAAA | 0.106 E-score |
| ACGGTATG | -0.226 E-score |
| CAAGTACC | -0.257 E-score |
| AGGGCAGC | -0.282 E-score |
| CAGCAGCC | -0.185 E-score |

| Sequence | binding signal |
| --- | --- |
| AGAGCCGC | -0.377 E-score |
| ATCTAATC | 0.331 E-score |
| AAGATTGT | 0.297 E-score |
| AGAAACAC | -0.0309 E-score |
| ATCTTCGC | 0.237 E-score |
| AATGTATC | 0.0583 E-score |
| AAGTTCGA | 0.0391 E-score |
| AGGCGGGG | -0.187 E-score |
| AGTCGGTA | -0.074 E-score |
| AGACATGA | -0.0158 E-score |
| AGCGCGGA | 0.0497 E-score |
| AATATAAG | 0.143 E-score |
| ATTTCAGA | 0.265 E-score |
| ATAGCAAC | -0.0191 E-score |
| AAAAAACC | 0.0412 E-score |
| AGAACTAT | -0.059 E-score |
| AATTACGC | 0.195 E-score |
| ATTCACAC | 0.132 E-score |
| ACCTCAAT | 0.029 E-score |
| ATGCTTGC | -0.16 E-score |
| ACGCTTGA | 0.0268 E-score |
| AACTTATA | 0.106 E-score |
